Laboratory results taken from PMC7819943, “Rice protein-binding microarrays: a tool to detect cis-acting elements near promoter regions in rice”.
Some of the results follow.

Biological target: T1, OsWOX13 (Oryza sativa, UniProt Q5QMM3 1-267)
T1 sequence: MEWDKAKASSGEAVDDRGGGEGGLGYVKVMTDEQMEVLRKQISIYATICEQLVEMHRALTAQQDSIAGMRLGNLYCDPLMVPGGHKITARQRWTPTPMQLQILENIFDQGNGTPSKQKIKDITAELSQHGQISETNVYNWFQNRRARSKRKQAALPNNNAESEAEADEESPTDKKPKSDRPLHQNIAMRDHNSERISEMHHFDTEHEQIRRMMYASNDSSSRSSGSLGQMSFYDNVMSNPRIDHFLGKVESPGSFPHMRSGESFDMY
Assay: protein-binding microarray (RPBM); PBS, 2% BSA, 51.3 ng/ul salmon testes DNA, 50 uM zinc acetate, 200 nM TF, 25 C, 1 h; high values mean tight binding
Settings: protein: recombinant; tags: N-terminal polyhistidine and DsRed monomer fusion (pET32a); label: CyDye5-dUTP incorporated in the synthesized complementary strand; 3' TTTTT single-stranded linker to array surface; dsDNA, one strand shown
How it was run: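 Per-feature fluorescence intensity (arbitrary units), read on an Axon 4000B scanner, is the binding signal. Transcription factors carrying an N-terminal polyhistidine tag and DsRed fusion were expressed in E. coli BL21-CodonPlus and purified on Ni–NTA. A custom Agilent array, made double-stranded by primer extension with Cy5-dUTP and blocked with 2% BSA, was incubated with 200 nM protein in PBS, 2% BSA, salmon testes DNA and 50 µM zinc acetate at 25 °C for 1 h and then washed.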

Sequence | binding signal
ACCATGATGGCATTAATGAACAATCAGGAATTCAGAATACCGGAGTCACCTAGTGCAG | 20300 fluorescence intensity (a.u.)
TCTATGATTTAAAATCCCATAGGAACCCAATGAGTATGATCGGAGTCACCTAGTGCAG | 11700 fluorescence intensity (a.u.)
GCATGATCAGCGCATAAATTTAATTTCCATCGATCTAGAACGGAGTCACCTAGTGCAG | 5900 fluorescence intensity (a.u.)
ATATGATTTTAGACGTTCGAGTTTCAAAAGGGCCAGGCCTCGGAGTCACCTAGTGCAG | 9920 fluorescence intensity (a.u.)
AGGTTAGATTTGATCAAACCAAAAGAAATTTGATTAGAAACGGAGTCACCTAGTGCAG | 4590 fluorescence intensity (a.u.)
ACAGTAAGAAACATCAATTAAGGTGGTTAGGAATTAATCACGGAGTCACCTAGTGCAG | 7840 fluorescence intensity (a.u.)
ATTCAATTATATAGTACAGTTACACTAAGTTACTATGCACCGGAGTCACCTAGTGCAG | 13500 fluorescence intensity (a.u.)
TGTTTTAAAGATTTAATTGGAACGGATTTAATGGTGTCATCGGAGTCACCTAGTGCAG | 19900 fluorescence intensity (a.u.)
TTTGATTAGTCAGAAATTTTCTTGTCTTAGACTAGCAAGACGGAGTCACCTAGTGCAG | 24900 fluorescence intensity (a.u.)
ATGTATAGTTTGACAAATTAATGGTAAACGTGTGCATTAGCGGAGTCACCTAGTGCAG | 3340 fluorescence intensity (a.u.)
TAAAATTGTGAAAATGTCATTTCCTATAAATTTGATAACCCGGAGTCACCTAGTGCAG | 8130 fluorescence intensity (a.u.)
AGATTAGATTTAGATTAGTCCTATGTGTCTCTTGCCGGGTCGGAGTCACCTAGTGCAG | 19100 fluorescence intensity (a.u.)
CTTTAAACAGTTTGAGTGAATTTAGGGGTACATATTTCTGCGGAGTCACCTAGTGCAG | 6070 fluorescence intensity (a.u.)
ACCTTAAATTTGTAGTTGATTTTAGGGTTTTCTCATTGAACGGAGTCACCTAGTGCAG | 27700 fluorescence intensity (a.u.)
AGTTTCATTAAATCTATAATTGAATAAGTTTTCATAATATCGGAGTCACCTAGTGCAG | 4690 fluorescence intensity (a.u.)
CAATCCATTTTAGATTGATTCCGTGTAGATCGATGGAGTTCGGAGTCACCTAGTGCAG | 25000 fluorescence intensity (a.u.)
CCTAATCAAGACCATCATGATGGTGTCGACAACATGGTCCCGGAGTCACCTAGTGCAG | 6960 fluorescence intensity (a.u.)
TTAAAGTCATAATTGCTATAAATTGAGGTTGCTCCACCCTCGGAGTCACCTAGTGCAG | 31700 fluorescence intensity (a.u.)
TTTTATAGCTAATCTATTATATATCTATAATGTTAGCTTCCGGAGTCACCTAGTGCAG | 3200 fluorescence intensity (a.u.)
CTTGATTAGTAGTTGGTTGCTCTTCTTCTTGTTCTTGGTTCGGAGTCACCTAGTGCAG | 64200 fluorescence intensity (a.u.)
TCACACTTCTTGTTTGATCAATCACAGAGACAGAGAGAGACGGAGTCACCTAGTGCAG | 3980 fluorescence intensity (a.u.)

Sequence | binding signal
GAGCCCGAACTAATTTTAACAGAACGCGTTACGGATTGAACGGAGTCACCTAGTGCAG | 3190 fluorescence intensity (a.u.)
ATATAATTTCTTACTTTCTCAGATGTGTCCTTATTCATGTCGGAGTCACCTAGTGCAG | 12200 fluorescence intensity (a.u.)
GTCAATTATCCCATTGCTTAATGTACTTATCATGGTAAGTCGGAGTCACCTAGTGCAG | 6080 fluorescence intensity (a.u.)
TTCGCTAATTATTTGCGGGGCTTCACATGGCAGGGCCGGACGGAGTCACCTAGTGCAG | 29400 fluorescence intensity (a.u.)
GCAGCCTATAAATGTGGTTAGATTGGAATATGGTTTGCAACGGAGTCACCTAGTGCAG | 11200 fluorescence intensity (a.u.)
TGGCCGGTGATTTACCGTACTAGTGATGTATGCGTGCAAACGGAGTCACCTAGTGCAG | 3650 fluorescence intensity (a.u.)
GGAGCAGACTTGATTTCTGATTTTGCTCGGCACCGTGAATCGGAGTCACCTAGTGCAG | 4430 fluorescence intensity (a.u.)
CCTTTTAATTATTTGATATTACGTTCTTCTCTAATATTCGCGGAGTCACCTAGTGCAG | 21600 fluorescence intensity (a.u.)
AAATTACTAATTTACCTATAATTAGTTGGACTCTAGCTCTCGGAGTCACCTAGTGCAG | 37600 fluorescence intensity (a.u.)
CAACACTTCAATCAGGGGAGAAGGAGGCGGCGACAACAAACGGAGTCACCTAGTGCAG | 5000 fluorescence intensity (a.u.)
ATGCAAAGTTGCAGGGATTGATTGGCTGTTTCGTTTGCTACGGAGTCACCTAGTGCAG | 21800 fluorescence intensity (a.u.)
TTTAACTGAAAATCGATGGTTAGATTTGATAGAGCCATGTCGGAGTCACCTAGTGCAG | 26600 fluorescence intensity (a.u.)
ATCGTGTTGATTGGAATTGTAAGTAGTCCTAGCTAGTGCTCGGAGTCACCTAGTGCAG | 49700 fluorescence intensity (a.u.)
TCATCCAAATTACTTCATGACACATGAAACTAACAGAAGCCGGAGTCACCTAGTGCAG | 5750 fluorescence intensity (a.u.)
AAATTGATCATTTGCGTAATCATCACTAAGTTCGTTTTGACGGAGTCACCTAGTGCAG | 8000 fluorescence intensity (a.u.)
CACTCCAGATTGGTTGCTTGCTTGCTTTCTGCGTCGTCGTCGGAGTCACCTAGTGCAG | 6670 fluorescence intensity (a.u.)
CACTGATATGATCCACCACAATTAATGTGCTCGAGACGACCGGAGTCACCTAGTGCAG | 7230 fluorescence intensity (a.u.)
CAGATTATGTGCCGTCAAATTGAGGAACTATATTGACCGGCGGAGTCACCTAGTGCAG | 6930 fluorescence intensity (a.u.)
TATTTAGACAGGTGTAAATAAATAAAAGAGACGTGTGGTCCGGAGTCACCTAGTGCAG | 11100 fluorescence intensity (a.u.)
CAGGTGAATTATTAGTAAATTAACCCAGCATCTCATCTGGCGGAGTCACCTAGTGCAG | 8610 fluorescence intensity (a.u.)
CATTATAACATTTAATGATGAGCTGCACTCATTCTCATCGCGGAGTCACCTAGTGCAG | 5250 fluorescence intensity (a.u.)
